This list was built around the results that the source calls inconclusive (neither active nor inactive); the mix of calls is not that of the screen. For some of these results: Potencies of inconclusive entries are left out as doubtful fits. The source made the active and inactive calls. Unless noted, calls come from the whole dose curve; as a rule, active = well fitted curve in the direction sought with a large enough effect; inconclusive = small, poorly fitted or top-dose-only effect, or another doubt; inactive = no such curve, though single readings can be large; an effect the other way counts as inactive or inconclusive.
How the values were obtained:
[1] = target: Cytochrome P450 2D6 (Homo sapiens) (UniProt P10635); assay: Cytochrome P450 family 2 subfamily D member 6 (CYP2D6) small molecule antagonists: luciferase biochemical (cell-free) qHTS assay (AID 1645840; active = well fitted curve in the direction sought with a large enough effect in the repeat runs; inconclusive = weak or mixed curves; inactive = no such curve, though single readings can be large; an effect the other way counts as inactive or inconclusive; note: nearly all actives have a fitted effect of over 55% in size)
UniProt P10635, sequence (P10635 whole entry, looked up): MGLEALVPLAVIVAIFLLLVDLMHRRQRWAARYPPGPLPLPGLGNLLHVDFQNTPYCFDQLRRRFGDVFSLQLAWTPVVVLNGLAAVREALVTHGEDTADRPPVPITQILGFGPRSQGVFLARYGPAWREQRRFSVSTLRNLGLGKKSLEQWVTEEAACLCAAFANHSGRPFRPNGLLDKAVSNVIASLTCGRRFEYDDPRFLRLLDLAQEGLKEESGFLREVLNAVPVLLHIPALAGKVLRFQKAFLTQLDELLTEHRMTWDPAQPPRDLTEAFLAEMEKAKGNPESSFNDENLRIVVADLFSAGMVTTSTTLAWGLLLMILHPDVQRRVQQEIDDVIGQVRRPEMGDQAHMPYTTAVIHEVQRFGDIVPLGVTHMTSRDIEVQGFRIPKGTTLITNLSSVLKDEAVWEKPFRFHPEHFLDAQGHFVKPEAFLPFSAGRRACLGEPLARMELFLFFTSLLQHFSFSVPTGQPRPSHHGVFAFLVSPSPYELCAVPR
Procedure, shortened: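 P450-Glo CYP2D6 system: proluciferin substrate converted by enzyme to luciferin, read by luminescence proportional to activity. Enzyme-substrate mix with compound 10 min at room temperature, then NADPH regeneration 1 h before detection reagent.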

[2] = Primary qHTS for inhibitors of nuclear receptor binding SET domain protein 2 (NSD2) in an isogenic RCH-ACV NSD2 p.E1099K mutant (9B) (AID 1645876); note: nearly all actives have a fitted effect of over 70% in size
[3] = Primary qHTS for inhibitors of nuclear receptor binding SET domain protein 2 (NSD2) in an RCH-ACV wild type WT cells (2C) (AID 1645877); details: activity change, negative = cell killing: at 44.9 µM (top of the series); note: nearly all actives have a fitted effect of over 70% in size
HEK293 = assay: Cytotoxic Profiling of Annotated Libraries Using Quantitative High-Throughput Screening (AID 1296008); details: Five cell lines viability, CellTiter-Glo ATP luminescence, 48-72 h; max response: hits give low values; note: nearly all actives have a fitted effect of over 60% in size; for max response: % is set by controls: 0 for no effect and ±100 for the full control effect
Procedure, shortened: (§1)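 Cytotoxicity was measured as CellTiter-Glo ATP luminescence, read after 10 min at room temperature. Compound treatment of the cells lasted 48 or 72 hr at 37 degrees Celsius in a qHTS format.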

HaCat = assay: as above; details: Five cell lines viability, CellTiter-Glo ATP luminescence, 48-72 h; max response: hits give low values
Procedure, shortened: as §1

SKOV3 = assay: Primary qHTS to identify gynecologic anti-cancer compounds using libraries of approved drugs and bioactive compounds (AID 1345084); details: Gynecologic cancer cell panel viability, ATPlite luminescence, 48 h; series mostly up to 57.5 µM; note: nearly all actives have a fitted effect of over 55% in size; for activity change, negative = cytotoxicity: % is set by controls: 0 for no effect and ±100 for the full control effect
Procedure, shortened: (§2)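 In this quantitative HTS, cell killing is estimated from loss of ATP-dependent luciferase light. Cells see five compound concentrations over a 48 h exposure.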

Tov-21-G = assay: as above; details: Gynecologic cancer cell panel viability, ATPlite luminescence, 48 h; activity change, negative = cytotoxicity: at 57.5 µM (top of the series)
Procedure, shortened: as §2

Tov112D = assay: as above; details: Gynecologic cancer cell panel viability, ATPlite luminescence, 48 h; activity change, negative = cytotoxicity: at 57.5 µM (top of the series)
Procedure, shortened: as §2

[4] = P-glycoprotein substrates identified in KB-8-5-11 adenocarcinoma cell line, qHTS therapeutic library screen (AID 1346987); note: nearly all actives have a fitted effect of over 65% in size; for activity change, negative = cytotoxicity: % is set by controls: 0 for no effect and ±100 for the full control effect
Procedure, shortened: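 In this qHTS, P-gp-rich KB-8-5-11 cells received library compounds across a concentration range. Viability was quantified by luminescence after 72 h at 37 degree C.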

[5] = tested on: Zika virus NS2B-NS3 protease (unlinked complex); assay: Primary screen GU Rhodamine qHTS for Zika virus inhibitors: Unlinked NS2B-NS3 protease assay (AID 1347159); note: nearly all actives have a fitted effect of over 60% in size
Procedure, shortened: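 Unlinked NS2B/NS3, 25 nM; Rhod110 peptide, 1.5 microM; compounds, up to 114 microM. Reaction run 15 min at RT in 10 mM Tris-HCl pH 8.0, 0.01% Tween 20; kinetic fluorescence change fitted with a 4-parameter Hill model.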

OV90 = assay: Primary qHTS to identify gynecologic anti-cancer compounds using libraries of approved drugs and bioactive compounds (AID 1345084); details: Gynecologic cancer cell panel viability, ATPlite luminescence, 48 h; series mostly up to 57.5 µM; note: nearly all actives have a fitted effect of over 55% in size; for activity change, negative = cytotoxicity: % is set by controls: 0 for no effect and ±100 for the full control effect
Procedure, shortened: as §2

HeLa = assay: as above; details: Gynecologic cancer cell panel viability, ATPlite luminescence, 48 h; series mostly up to 57.5 µM
Procedure, shortened: as §2

PA-1 = assay: as above; details: Gynecologic cancer cell panel viability, ATPlite luminescence, 48 h; series mostly up to 57.5 µM
Procedure, shortened: as §2
Potency is the fitted concentration of half-maximal effect; tags give direction and shape of the fitted curve.

Compound: Cc1ccc(-c2ccc3c(ccc4sc5c(c43)NC[C@@H](C)NC5=O)n2)cn1
- Potency [1]: inactive
- Potency [2]: inconclusive [inhibitor, full curve]
- Potency [3]: active: 16.6 µM
- max response (HEK293): inactive: -21.3%
- max response (HaCat): inactive: -8.25%
- Potency (SKOV3): inactive
- Potency (Tov-21-G): inactive

Compound: CCOC(=O)c1ccc(OCCN2C[C@H](O)[C@@H](O)[C@H](O)[C@H]2CO)cc1
- Potency [2]: inactive
- max response (HEK293): inactive: -10.3%
- max response (HaCat): inactive: -6.67%
- Potency (SKOV3): inactive
- Potency (Tov112D): inactive

Compound: O=C(NCc1ccccc1-c1ccccc1C(=O)NCCc1ccccn1)OCc1ccccc1
- Potency [4]: inconclusive [inhibitor, full curve]
- Potency [1]: inconclusive [inhibitor, single point]
- Potency [2]: inconclusive [inhibitor, partial curve, poor fit]
- Potency [3]: inconclusive [inhibitor, partial curve, poor fit]
- Potency (HEK293): inconclusive [inhibitor, single point]
- max response (HaCat): inactive: -7.21%
- Potency (SKOV3): inconclusive [rising, single point]

Compound: CCCC(C(=O)O)c1c(C)nc2ccc(Cl)cc2c1-c1ccccc1 (stereo unspecified)
- Potency [5]: active: 31.6 µM
- max response (HEK293): inactive: -5.83%
- outcome (HaCat): inactive
- Potency (SKOV3): inconclusive [rising, single point]

Compound: COC(=O)CC1CC(c2ccc(O)cc2)=NO1 (stereo unspecified)
- Potency [3]: inconclusive [inhibitor, full curve, poor fit]
- max response (HEK293): inactive: 0.726%
- Potency (HaCat): inconclusive [inhibitor, partial curve, poor fit]

Compound: O=C(N[C@@H]1CC[C@@H](c2cccc(F)c2F)CN(CC(F)(F)F)C1=O)N1CCC(n2c(=O)[nH]c3ncccc32)CC1
- Potency [5]: inconclusive [inhibitor, partial curve, poor fit]
- Potency [1]: inconclusive [inhibitor, single point]
- Potency [2]: inconclusive [inhibitor, single point]
- Potency (HEK293): active: 16.4 µM
- outcome (HaCat): inactive
- Potency (Tov-21-G): inactive
- Potency (Tov112D): inactive

Compound: NC(N)=NC(=O)Cc1c(Cl)cccc1Cl
- Potency [4]: inconclusive [inhibitor, single point]
- Potency [1]: inconclusive [inhibitor, partial curve, poor fit]
- Potency [2]: inconclusive [inhibitor, partial curve, poor fit]
- Potency [3]: inconclusive [inhibitor, partial curve]
- Potency (HEK293): active: 8.41 µM
- max response (HaCat): inactive: -14.8%
- Potency (OV90): inconclusive [cytotoxic, single point]

Compound: C/C(=C\CCC(C)C1=CCC2(C)OC3=C(CC12)C(=O)C(O)CC3)CO (stereo unspecified)
- Potency [4]: inactive
- Potency [5]: inconclusive [inhibitor, full curve, poor fit]
- Potency (HEK293): inconclusive [inhibitor, partial curve]
- max response (HaCat): inactive: -38%
- Potency (SKOV3): inconclusive [cytotoxic, full curve, poor fit]

Compound: Cc1ccc(F)cc1C(=O)Nc1ccc(C(=O)N2Cc3cccn3Cc3ccccc32)c(Cl)c1
- Potency [4]: inconclusive [inhibitor, full curve]
- Potency [2]: inconclusive [inhibitor, partial curve]
- Potency [3]: inconclusive [inhibitor, partial curve]
- Potency (HEK293): active: 9.2 µM
- max response (HaCat): inactive: -26.5%

Compound: C[C@H]1[C@H](C)CC[C@]2(C(=O)O)CC[C@]3(C)C(=CCC4[C@@]5(C)C[C@@H](O)[C@H](O)C(C)(C)C5CC[C@]43C)[C@H]12 (stereo partly specified)
- Potency [5]: inconclusive [inhibitor, partial curve, poor fit]
- Potency [3]: inactive
- max response (HEK293): inactive: 3.03%
- max response (HaCat): inactive: -6.87%
- Potency (HeLa): inactive
- Potency (SKOV3): inactive

Compound: Cc1[nH]nc(C(F)(F)F)c1Cc1sc2c(c1C(=O)N1C[C@](C)(O)CO1)c(=O)n(C)c(=O)n2C(C)C
- Potency (HEK293): active: 0.0517 µM
- Potency (HaCat): inconclusive [inhibitor, full curve, poor fit]
- Potency (PA-1): inconclusive [rising, single point]
- Potency (SKOV3): inconclusive [rising, single point]
- Potency (Tov112D): inactive
